# Assay results from paper PMC12136788.
# The other results are listed elsewhere or left out.
# T1: UNK ZnF1-3 (human, UniProt Q9C0B0 31-174)
# T1 sequence: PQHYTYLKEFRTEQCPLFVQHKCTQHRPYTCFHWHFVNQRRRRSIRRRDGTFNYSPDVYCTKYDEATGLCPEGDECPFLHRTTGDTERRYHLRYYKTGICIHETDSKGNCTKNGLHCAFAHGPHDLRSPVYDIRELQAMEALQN
# B1: chr5:145543945:145543946:-_ENSG00000133706_ENST00000545646|hu_hu|hu_hu_hu_mus_True|8_8 (ssRNA)
# RNA: GGGAGUUCUACAGUCCGACGAUCCUGAACGGCCAGUGGUGGGAAAUAAUCAAGCCAGUGCUCUGCUUCAGAAAACUUCACUAUGUCGUCAUCAGAGAGCCCAAGGGAUUUCAUAAUGUCCCACUGGUAUUUAGAAGAUCCUGCCAACAGAGGAUUGAGCAUCA
# B2: 70340692_70340812_512_CDS_ENSMUSG00000018286_ENSMUST00000018430|mouse|control|control (ssRNA)
# RNA: GGGAGUUCUACAGUCCGACGAUCCUGCAGACAUUCGUCCUUGGUCAUGCCUUCCCGAUACGUAGCAUCAACAUAGCCAUAGAUGUACGAGCUCCCGGAGCCUCCGAUGGCAAAGGACUGUCUUACCAUCAUACCCCCCAUGGGCAACAGAGGAUUGAGCAUCA
# B3: chr4:6323411:6323412:-_ENSMUSG00000028245_ENSMUST00000029910|mus_mus|motif|central (ssRNA)
# RNA: GGGAGUUCUACAGUCCGACGAUCAUAUUUUUAAUGUAGAAAAGAUGAACCUUUAGUAGCAUAAUGAAAUAUAAACCAUUGCGGUACACAGUAACAGACUUAAUGUUAUUAAGAAUCUGGGCACGCAGCACUGCCGAAAGGAACCAACAGAGGAUUGAGCAUCA
# B4: chr1:36394379:36394380:+_ENSG00000092847_ENST00000373204|hu_hu|FALSE|FALSE (ssRNA)
# RNA: GGGAGUUCUACAGUCCGACGAUCCAGGAGCCAUCAAAUACCCAGUGCAAAAUUUCCUAAAAUAUGAUACAAAAGUAUAAACUAGAACAGAAAAAAGCAACAAACGGAGCUUUAAUAAAUUCACAAAAUUUUAAACUUUUGCUCCAACAGAGGAUUGAGCAUCA
# B5: chr5:32761720:32761721:+_ENSMUSG00000014956_ENSMUST00000015100|mus_hu|FALSE|FALSE (ssRNA)
# RNA: GGGAGUUCUACAGUCCGACGAUCGAGGCUGUCCACGUUCAGCUCCCCGUCCGCCAUCUUGUCGGCACAGACUCUCCUUCCCAGCAGCGGGAACAAGGGCUUCUCGGCGGCGGAGGCUGCGGCGACGGCUCGGCGUUCUCUCACCAACAGAGGAUUGAGCAUCA
# B6: chr10:1038552:1038553:+_ENSG00000107937_ENST00000545048|hu_hu|motif|central (ssRNA)
# RNA: GGGAGUUCUACAGUCCGACGAUCCAUAGAACGGAUGAAUAUCAUCCAAUUUGGGGAAAUCUGUUAGAAUUUGUGAAAGUCGGUCAUGGUAAUUCUGUUGAGUAAAUUUGACUUUUCUCAUGUAAAAAUGUCUAAUGCGAUGUACAACAGAGGAUUGAGCAUCA
# B7: chr14:76904430:76904431:+_ENSMUSG00000022010_ENSMUST00000022587|mus_mus|mus_mus_mus_hu_True|48_68 (ssRNA)
# RNA: GGGAGUUCUACAGUCCGACGAUCUGCAGCCAAAAACACCCUCGUGGAAAAAAAGAGGGAACACCAGCAGCCUGGUUUAAGCUAGAUAAAACCGCCUGGCUUUCCGCAGCCCAGGGAGAAACAGAAAACGGCAGCCCUAAUUUACAACAGAGGAUUGAGCAUCA
# B8: 210416310_210416430_1989_3pUTR_ENSG00000082497_ENST00000367012|human|control|control (ssRNA)
# RNA: GGGAGUUCUACAGUCCGACGAUCUGUUAAAUCCCUGCUGUAACUCUGAUUUAUCCUUAAUUUUCACAUUGGCAAAAAUUAAGAUAAAAGUAAGGCACCAAAAAUCGCCCUGUAUAACACCUCUCUAAAAGCCUCAUCACCCAUCAACAGAGGAUUGAGCAUCA
# B9: chr1:66829163:66829164:+_ENSG00000184588_ENST00000423207|hu_hu|motif|central (ssRNA)
# RNA: GGGAGUUCUACAGUCCGACGAUCUACAUCAGCAGCGUGCAGGCUGUUGUGAUAUGCCACGUCAGAAUGGUAAUGGUCUUCGGAAGUCAUCAUGUAGGUUAUAAAUGUGUCAGAUGAGAUUCUGAAUGUCUUUAGGAGGUCUCUCAACAGAGGAUUGAGCAUCA
# B10: chr2:50987981:50987982:-_ENSMUSG00000017144_ENSMUST00000017288|mus_hu|FALSE|FALSE (ssRNA)
# RNA: GGGAGUUCUACAGUCCGACGAUCGGUGGCAACGUGAAAAAUGUCUCUGACGCUAUUUUCCGACUGUAAAGCUGAGCAUUCGAUAUAAGUAGCUGCUCCAAUCUGUUUGGCCAUAUUUGCCCCCUGGUCAUAGGACACUGGCGUCAACAGAGGAUUGAGCAUCA
# B11: chr3:100432656:100432657:+_ENSG00000114354_ENST00000490574|hu_mus|motif|central (ssRNA)
# RNA: GGGAGUUCUACAGUCCGACGAUCUGUAACUUCAUCAUUACUCAGAAGCUUUCCUCUGAAUACUCGCUGCAUCAUUAGCACGGAUUCAUCGUAAGUAAUGUCUUCAUUAUGAAUGGGAAUUCGUCGGAUAUCUUCCCCAAGUUGCAACAGAGGAUUGAGCAUCA
# B12: chr7:65705475:65705476:+_ENSG00000169902_ENST00000304842|hu_hu|hu_hu_hu_mus_True|48_48 (ssRNA)
# RNA: GGGAGUUCUACAGUCCGACGAUCUCUAUUCGGUGAUGGCACUCCAUGGCAUGCUGGCCCAGGUAAAACACGGUCACAGAACUAAUCACCAGACAUGCCAAGAGUAAGUUCUGCUUCAGCUUCCCAACCAUCUUGAUGUGGUUACAACAGAGGAUUGAGCAUCA
# B13: chr2:170668292:170668293:+_ENSG00000138385_ENST00000260956|hu_hu|FALSE|FALSE (ssRNA)
# RNA: GGGAGUUCUACAGUCCGACGAUCGUGGACCUAAUUCGGUUUUCCUUUUAAAAGCCCCGCAAACAAAAGUCGUUUAAAACCUAUUUAAAAUGAAUAAAAAAUUGGUUUACUAAACUACUGGUCUCCAGCACCAUUUUCUGUUUUCAACAGAGGAUUGAGCAUCA
# B14: chr16:94664741:94664742:+_ENSMUSG00000040785_ENSMUST00000117648|mus_hu|FALSE|FALSE (ssRNA)
# RNA: GGGAGUUCUACAGUCCGACGAUCUGGUACUGAUCUUGGUAGCUGAUAUUCAGGAGAAAGGCUGGCCAAGGGUGUAUAUAUGCUGGUGUACUGGGGCAAACCUGGUAACACGUUUAUGUAUGCUGGCGGUGUCUGGGUGAUAUCCAACAGAGGAUUGAGCAUCA
# Molecular target: T1, UNK ZnF1-3
# Test: nsRBNS (natural sequence RNA bind-n-seq); RBNS binding buffer (assumed for nsRBNS): 25 mM Tris pH 7.5, 150 mM KCl, 3 mM MgCl2, 0.01% Triton X-100, 500 ug/ml BSA, 20 U/ml SUPERase-In, 4 C; UNK is unkempt and MSI1 is Musashi-1; names of the RNAs are library labels; protein concentration not given here; high values mean tight binding
row,Binder,binding signal [enrichment R]
1,B1,1.07
2,B2,1.03
3,B3,0.88
4,B4,2.02
5,B5,0.503
6,B6,0.878
7,B7,1.88
8,B8,1.63
9,B9,0.688
10,B10,0.976
11,B11,0.469
12,B12,0.504
13,B13,1.4
14,B14,0.932
